For 37 sequences, binding signal results are on record in PMC5700166.

The entries are a selection whose mix differs from that of the whole data set. The list includes weakly bound sequences.

The target in the assay is T1, GST-Ap-NF-kB RHD (UniProt A0A913YAJ5).
T1 sequence: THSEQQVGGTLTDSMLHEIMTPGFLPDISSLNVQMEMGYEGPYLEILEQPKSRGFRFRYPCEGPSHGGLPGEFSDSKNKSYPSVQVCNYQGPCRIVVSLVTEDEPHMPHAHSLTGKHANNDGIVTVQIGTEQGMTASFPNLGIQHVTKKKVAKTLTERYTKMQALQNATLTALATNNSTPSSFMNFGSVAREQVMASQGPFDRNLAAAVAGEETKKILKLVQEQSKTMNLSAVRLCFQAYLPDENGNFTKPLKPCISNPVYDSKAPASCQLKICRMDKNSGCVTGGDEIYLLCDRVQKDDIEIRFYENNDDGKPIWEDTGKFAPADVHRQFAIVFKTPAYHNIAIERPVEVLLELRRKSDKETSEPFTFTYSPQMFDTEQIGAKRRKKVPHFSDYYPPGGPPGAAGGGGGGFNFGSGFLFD
As to the kind of experiment: protein-binding microarray (PBM). The settings on record: PBM: ~300 nM protein, 6 mM HEPES pH 7.8, 80 mM KCl, 0.5 mM EDTA, 0.5 mM EGTA, 6% glycerol, 35 ng/ul poly-dIdC, 1% milk, 1 h, room temperature; Ap Aiptasia and Nv Nematostella (sea anemones) / Co Capsaspora / Aq Amphimedon (sponge) / Dm Drosophila / Hu human; RHD is the Rel homology domain; high values mean tight binding; most listed sequences are background and not binding sites; double strand, one strand shown.
As to “CCGATTAACATCAGGAAAATACATGATGTTAATCGGGTCTTGATTCGCTTGACGCTGCTG”, the binding signal turned out to be 0.531 z-score.

For the sequence “CCGATTAACATCACGTAAAATCCTGATGTTAATCGGGTCTTGATTCGCTTGACGCTGCTG”, the binding signal is -0.29 z-score.

Regarding “CCGATTAACATCACAAAATTCCATGATGTTAATCGGGTCTTGATTCGCTTGACGCTGCTG”, the binding signal was -0.411 z-score.

On to “CCGATTAACATCAGGAAAACACATGATGTTAATCGGGTCTTGATTCGCTTGACGCTGCTG”, for which the binding signal was -0.437 z-score.

As to “CCGATTAACATCAAAAAAAGTACTGATGTTAATCGGGTCTTGATTCGCTTGACGCTGCTG”, the binding signal stood at 0.529 z-score.

Consider “CCGATTAACATCAAATAATTTCCTGATGTTAATCGGGTCTTGATTCGCTTGACGCTGCTG”, for which the binding signal was found to be 0.237 z-score.

On to “CCGATTAACATCACGTATTTTCCTGATGTTAATCGGGTCTTGATTCGCTTGACGCTGCTG”, for which the binding signal is -0.237 z-score.

Take “CCGATTAACATCACGTTTTTTCCTGATGTTAATCGGGTCTTGATTCGCTTGACGCTGCTG”: the binding signal is -0.0412 z-score.

The sequence “CCGATTAACATCACGTAAACTCCTGATGTTAATCGGGTCTTGATTCGCTTGACGCTGCTG” showed a binding signal of 0.0592 z-score.

For “CCGATTAACATCAGAATTTCCTATGATGTTAATCGGGTCTTGATTCGCTTGACGCTGCTG”, the binding signal was 0.134 z-score.

The sequence “CCGATTAACATCAAAATTCCCCCTGATGTTAATCGGGTCTTGATTCGCTTGACGCTGCTG” displayed a binding signal of 10.1 z-score.

For the sequence “CCGATTAACATCATTTACATTCGTGATGTTAATCGGGTCTTGATTCGCTTGACGCTGCTG”, the binding signal was -0.179 z-score.

Consider “CCGATTAACATCAGTAAAATCCATGATGTTAATCGGGTCTTGATTCGCTTGACGCTGCTG”, for which the binding signal is -0.646 z-score.

For “CCGATTAACATCATGGTACTTGTTGATGTTAATCGGGTCTTGATTCGCTTGACGCTGCTG”, the binding signal stood at 0.718 z-score.

For the sequence “CCGATTAACATCAAGTTTTTTCCTGATGTTAATCGGGTCTTGATTCGCTTGACGCTGCTG”, the binding signal is -0.186 z-score.

As to “CCGATTAACATCAGGAAAAATACTGATGTTAATCGGGTCTTGATTCGCTTGACGCTGCTG”, the binding signal was -0.224 z-score.

“CCGATTAACATCAAAAATTCCCCTGATGTTAATCGGGTCTTGATTCGCTTGACGCTGCTG” gave a binding signal of 10.4 z-score.

On to “CCGATTAACATCAAGTAATTTTCTGATGTTAATCGGGTCTTGATTCGCTTGACGCTGCTG”, for which the binding signal was -0.328 z-score.

As for “CCGATTAACATCAAGTATTTTCCTGATGTTAATCGGGTCTTGATTCGCTTGACGCTGCTG”, the binding signal was 0.19 z-score.

“CCGATTAACATCACCTCTCGCGCTGATGTTAATCGGGTCTTGATTCGCTTGACGCTGCTG”: the binding signal was found to be 0.241 z-score.

Turning to “CCGATTAACATCAGTGGTACTTGTGATGTTAATCGGGTCTTGATTCGCTTGACGCTGCTG”, the binding signal was found to be 0.591 z-score.

For the sequence “CCGATTAACATCAGGAAAAACACTGATGTTAATCGGGTCTTGATTCGCTTGACGCTGCTG”, the binding signal was -0.348 z-score.

Consider “CCGATTAACATCAGCGGAATTCCTGATGTTAATCGGGTCTTGATTCGCTTGACGCTGCTG”, for which the binding signal amounted to 1.33 z-score.

In the case of “CCGATTAACATCACGTACATTCCTGATGTTAATCGGGTCTTGATTCGCTTGACGCTGCTG”, the binding signal was determined as 0.0173 z-score.

For the sequence “CCGATTAACATCAGTGTGCTTCTTGATGTTAATCGGGTCTTGATTCGCTTGACGCTGCTG”, the binding signal was -0.395 z-score.

As for “CCGATTAACATCAGTTTTTTCCATGATGTTAATCGGGTCTTGATTCGCTTGACGCTGCTG”, the binding signal is -0.0799 z-score.

The sequence “CCGATTAACATCAGGCAAGTCCCTGATGTTAATCGGGTCTTGATTCGCTTGACGCTGCTG” had a binding signal of 3.63 z-score.

“CCGATTAACATCAGGAAAGTCCATGATGTTAATCGGGTCTTGATTCGCTTGACGCTGCTG”: the binding signal was -0.292 z-score.

On to “CCGATTAACATCAAAATTTACCATGATGTTAATCGGGTCTTGATTCGCTTGACGCTGCTG”, for which the binding signal is 0.443 z-score.

Consider “CCGATTAACATCAAGGCAATTCCTGATGTTAATCGGGTCTTGATTCGCTTGACGCTGCTG”, for which the binding signal is -0.396 z-score.

“CCGATTAACATCAGAAATTCCCCTGATGTTAATCGGGTCTTGATTCGCTTGACGCTGCTG” returned a binding signal of 9.89 z-score.

With “CCGATTAACATCACGTGTTTTCCTGATGTTAATCGGGTCTTGATTCGCTTGACGCTGCTG”, the binding signal is -0.14 z-score.

“CCGATTAACATCACTGGAATTCCTGATGTTAATCGGGTCTTGATTCGCTTGACGCTGCTG” gave a binding signal of 0.14 z-score.

As to “CCGATTAACATCAGTACATTCCATGATGTTAATCGGGTCTTGATTCGCTTGACGCTGCTG”, the binding signal was -0.314 z-score.

In turn, “CCGATTAACATCAGGAATATACATGATGTTAATCGGGTCTTGATTCGCTTGACGCTGCTG” registered a binding signal of 0.0733 z-score.

Sequence “CCGATTAACATCAGGGAGTACCCTGATGTTAATCGGGTCTTGATTCGCTTGACGCTGCTG” came in with a binding signal of 5.7 z-score.

Turning to “CCGATTAACATCAGGAATTACACTGATGTTAATCGGGTCTTGATTCGCTTGACGCTGCTG”, the binding signal is -0.334 z-score.
